The values that follow come from ChEMBL document CHEMBL4888484, “Replenishing the malaria drug discovery pipeline: Screening and hit evaluation of the MMV Hit Generation Library 1 (HGL1) against asexual blood stage Plasmodium falciparum ,using a nano luciferase reporter read-out” (2022).

In all, about 150,000 compounds went through this assay and about 540 (0.36%) showed an effect of 50% or more. The list shows a part of the results.

As a reminder, the % Inhibition is the change of the read-out against control, counted positive when it falls.

In this experiment the test system is Plasmodium falciparum. Put plainly: Primary screen in NF54 nanoGlo assay, in single point, at 2uM, 72h; a lower Z score goes with more inhibition. It is filed as functional, Erythrocyte. The conditions noted are these: timepoint 72 hour.
In the case of `O=C1CC[C@H](Cc2ccc(Cl)cc2)C(=O)N1`, the “% Inhibition” value was 8% and the Z score is reported as -1.24.
For `CC(C)N1CC[C@H](NC(=O)c2cncc(-c3ccc(Cl)cc3)c2)C1=O`, in that order: -1% and 0.1.
`Cc1ccc(NC(=O)C[C@H]2CCOC2)c(C)n1`: the “% Inhibition” value is listed as -9% and the Z score is on record as 1.39.
For `COc1cc(OC)c(NC(=O)N2CCN(C(=O)c3nonc3N)CC2)cc1Cl`, in that order: 5% and -0.74.
Turning to `CCc1nnsc1C(=O)NCc1ccc(CN2CC(C)CC(C)C2)cc1` (stereo unspecified), the “% Inhibition” value is listed as -5% and the Z score stood at 0.73.
For `CC1(C(=O)NCc2ccc3cncn3c2)CCOCC1`, in that order: 8% and -1.23.
Take `Cc1sc(-c2nc(-c3cccc(Cl)c3)no2)cc1S(=O)(=O)NCCN1CCCC1`: the “% Inhibition” value is reported as -6% and the Z score is on record as 0.74.
For `CCN(CC)C(=O)N1CCN(Cc2nc(C(C)(C)C)no2)CC1` the same measures were -6% and 1.28.
For `CCCCOc1ccc(N2C(=O)C3ON(c4ccccc4)C(c4ccncc4)C3C2=O)cc1` (stereo unspecified) the same measures were -12% and 1.25.
For `CC(C#N)C(=O)NC1CCCC(F)(F)C1` (stereo unspecified), in that order: 6% and -0.62.
For the compound `CC(=O)c1ccc(-n2nnc(C(=O)c3ccc(Cl)cc3Cl)c2C)cc1`, the “% Inhibition” value is listed as -6% and the Z score was found to be 0.77.
For `NCc1ccc(Br)c(C(F)(F)F)c1`, in that order: -18% and 2.02.
Turning to `CC(C)(C)OC(=O)N1Cc2ccc(NCc3cscn3)cc2C1`, the “% Inhibition” value was 1% and the Z score is recorded as -0.21.
For `Cc1nccn1CC1(CNC(=O)c2ccc(-c3nccn3C)cc2)CC1`, in that order: -15% and 1.81.
For `CC(C)C[C@H]1NC(=O)[C@@H](c2ccc(O)cc2)NC1=O` the same measures were 5% and -0.83.
For `COc1ccc(NC(=O)Cn2c(=O)n(-c3ccc(F)cc3)c(=O)c3c2cc(C)n3C)cc1`, in that order: -9% and 1.49.
Consider `CC(C)(O)C(=O)N1CCC2CCC(C1)N2Cc1ccccc1` (stereo unspecified), for which the “% Inhibition” value was determined as 1% and the Z score is on record as -0.21.
For `Cc1nnc(NC(=O)[C@H](C)Nc2ccc(F)cc2)s1`, in that order: -17% and 1.95.
For `Cc1cc(C)n(-c2ccc(C(=O)N(C)CCc3noc(C4CC4)n3)cc2)n1`, in that order: -3% and 0.41.
Regarding `Cc1cccc(C)c1NC(=O)N(C)[C@H]1CC(C)(C)OC1=O`, the “% Inhibition” value is on record as -3% and the Z score came to 0.38.
For `CN1CC[C@H](C(=O)N2CCC(c3ccccc3)CC2)CC1=O`, in that order: -6% and 0.77.
For `CCN1CCN(C(=O)C2CC(c3cccc(OC)c3)NS(=O)(=O)N2C)CC1` (stereo unspecified) the same measures were -32% and 2.85.
Consider `CC1=CC[C@H]2CN(Cc3cnc4c(-c5ccccc5)cnn4c3)C[C@H]2C1`, for which the “% Inhibition” value was -15% and the Z score is listed as 1.52.
For `CCCc1ccc(CN[C@@H](C(=O)O)c2ccnn2C)s1`, in that order: -11% and 2.1.
For `CN(CCc1cnccn1)Cc1c(F)ccc(C2OCCO2)c1Cl` the same measures were 5% and -0.54.
Consider `CCNC(=O)N1CCC2(CC1)CN(c1cccc(F)c1)[C@@H]2c1ccccc1`, for which the “% Inhibition” value is on record as -1% and the Z score was found to be 0.19.
For `CC(C)N(C)CC(=O)NC[C@H]1COC2(CCCCCC2)O1` the same measures were 0% and 0.04.
For `O=C(NC1CCCCCC1)N[C@H]1CCS(=O)(=O)C1` the same measures were -10% and 1.77.
As for `O=C(CN1CCCNC1=O)Nc1nc2cc(F)c(F)cc2s1`, the “% Inhibition” value is 0% and the Z score is -0.06.
For `C[C@H](Nc1ccc(C#N)nn1)C1CCN(CC(F)(F)F)CC1`, in that order: 12% and -1.6.
Regarding `CN(Cc1ccccc1)[C@H]1CCCN(Cc2ccc3nonc3c2)C1`, the “% Inhibition” value was determined as 1% and the Z score is -0.1.
As to `CN(CC[C@H]1CCCN1C)Cc1cnc2ccccc2c1`, the “% Inhibition” value was 0% and the Z score is 0.06.
For `COc1cc2c(cc1OC)CN(C(=O)c1ccc(OCc3cccnc3)cc1)CC2` the same measures were 11% and -1.44.
In the case of `O=C(NCc1ccc2c(c1)OCO2)[C@@H]1COC2(CCN(C(=O)c3ccccc3F)CC2)N1C(=O)c1ccccc1`, the “% Inhibition” value is reported as -3% and the Z score is recorded as 0.44.
For `Cc1nn(Cc2cc(-c3ccco3)on2)c(=O)c(C#N)c1C` the same measures were -15% and 1.39.
Take `O=C(Cc1cccs1)N(CCn1ccc(C(F)(F)F)n1)C1CCCC1`: the “% Inhibition” value is -1% and the Z score was found to be 0.2.
For `O=C(COc1cccc(Cl)c1)NCC1(N2CCOCC2)CCCCC1`, in that order: -19% and 1.71.
For `COc1cc(Br)ccc1CNC(=O)N1CC(CO)C1`, in that order: -16% and 2.11.
As to `Cc1ccc(C(=O)N2CCC(N3CCC[C@H](C(=O)N4CCCC4)C3)CC2)cc1`, the “% Inhibition” value is -12% and the Z score is on record as 1.21.
`Cc1nn(C)c(C)c1-c1ccnc(N2CCC[C@H]2c2nc(-c3cccnc3)no2)n1`: the “% Inhibition” value is recorded as -9% and the Z score amounted to 1.38.
As to `Fc1ccccc1OCCNCc1cnc(N2CCOCC2)nc1`, the “% Inhibition” value is -8% and the Z score was 1.41.
Take `CN(Cc1cnn(C)c1)c1ccncc1Cl`: the “% Inhibition” value is listed as -5% and the Z score was 0.69.
As to `Cc1cc(N2CC[C@@]3(CCCN(CCc4ccccc4)C3)C2)nc(N)n1`, the “% Inhibition” value is 16% and the Z score is given as -2.54.
